The whole screen tested about 48,000 compounds, of which about 550 (1.1%) were called active. Roughly 4% stayed inconclusive and do not appear here. No stated cut-off is given here; in the data, active means potency below about 15 µM; inconclusive means mostly about 16 µM to 33 µM; inactive means weaker than that. Some of the results follow. A value given as a limit tells only on which side of the number the result lay.
Potency means the concentration at half of the fitted maximal effect.

UniProt P04062, sequence (P04062 whole entry, looked up): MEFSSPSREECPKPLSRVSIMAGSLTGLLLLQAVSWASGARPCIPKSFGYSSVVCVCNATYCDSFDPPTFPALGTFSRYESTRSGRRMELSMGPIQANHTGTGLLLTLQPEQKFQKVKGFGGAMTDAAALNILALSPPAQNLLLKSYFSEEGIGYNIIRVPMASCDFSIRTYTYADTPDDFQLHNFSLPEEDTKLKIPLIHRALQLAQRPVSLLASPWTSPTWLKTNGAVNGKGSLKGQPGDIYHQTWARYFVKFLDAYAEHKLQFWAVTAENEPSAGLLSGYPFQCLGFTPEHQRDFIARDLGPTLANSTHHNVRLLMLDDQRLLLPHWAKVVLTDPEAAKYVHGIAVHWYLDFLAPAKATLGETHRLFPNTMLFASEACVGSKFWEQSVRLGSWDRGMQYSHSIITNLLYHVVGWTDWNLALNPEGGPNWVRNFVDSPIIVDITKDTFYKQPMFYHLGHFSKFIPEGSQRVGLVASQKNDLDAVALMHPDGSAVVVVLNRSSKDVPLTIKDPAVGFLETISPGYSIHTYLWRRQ

The assay concerns the target Lysosomal acid glucosylceramidase (Homo sapiens) (UniProt P04062). Kind of assay: Glucocerebrosidase.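 Further: the screen sought inhibitors.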 Particulars: purified enzyme, resorufin glucoside fluorescence (screen aimed at inhibitors), 20 min. Summed up:
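Wild-type enzyme at 0.2 nM final in 50mM citric acid/KH2PO4, 10mM sodium taurocholate, 0.01% tween-20, pH 5.9, with resorufin beta-D-glucopyranoside at 30 uM final. Compounds titrated, 20 min at RT, red fluorescence read; AC50 from titration.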
In the case of `Cc1cc(C(=O)NCCCN2CCCC2=O)no1`, the Potency is inactive: > 76.9 µM.

As for `CCN(C(=O)COc1ccccc1)c1nnc(-c2cccnc2)s1`, the Potency was inactive: > 76.9 µM.

Take `CN1CC[n+]2cnc3ccccc3c21`: the Potency is inactive: > 76.9 µM.

As for `O=C(CCc1ccccc1)Nc1ccc(NC(=O)c2ccco2)nc1`, the Potency is inactive: > 76.9 µM.

With `COC(=O)c1ccccc1NC(=O)c1sc(=S)n(C)c1N`, the Potency is inactive: > 76.9 µM.

Regarding `COc1ccc(CNC(=O)c2c(O)c3ccccc3n(C)c2=O)cc1OC`, the Potency was inactive: > 76.9 µM.

For `O=C(O)CCNS(=O)(=O)c1ccc(Oc2ccccc2)cc1`, the Potency is inactive: > 76.9 µM.

As for `COc1ccc(CN(C(C)=O)c2cccc(C)c2C)cc1`, the Potency was inactive: > 76.9 µM.

As for `Cc1ccc2cc3cc(C(=O)NCCCN4CCc5ccccc5C4)oc3nc2c1`, the Potency entry is “inactive”.

For the molecule `COc1c(C)cccc1C(=O)Nc1cc(Cl)ccc1N1CCOCC1`, the Potency was inactive: > 76.9 µM.

Turning to `C[N+]1=C2CCCCCN2C(O)(c2ccccc2)C1` (stereo not drawn), the Potency was inactive: > 76.9 µM.

As for `Cc1ccnc(N(C(=O)c2cccs2)C(=O)c2cccs2)c1`, the Potency is inactive: > 76.9 µM.

For the molecule `COc1ccc(NC(=O)C2CCCN(c3c4c(nc5ncnn35)CCC4)C2)cc1OC` (stereo not drawn), the Potency was inactive: > 76.9 µM.

Regarding `CCCCn1c(=O)n(CC(O)c2ccccc2)c(=O)c2c1ncn2C1CCCC1` (stereo not drawn), the Potency is inactive: > 76.9 µM.

As for `COc1ccc(Br)c(C(=O)Nn2c(C)nc3ccccc3c2=O)c1`, the Potency was inactive: > 76.9 µM.

Consider `Cc1oc(C(C)(C)C)cc1C(=O)Nc1ccc2c(c1)OCCO2`, for which the Potency is inactive: > 76.9 µM.

Turning to `NS(=O)(=O)c1ccc(CCNC(=O)c2cncc(Br)c2)cc1`, the Potency is inactive: > 76.9 µM.

`Cc1ccc(SCC(=O)N(Cc2nc(-c3ccccc3)no2)C(C)C)cc1`: the Potency was inactive: > 76.9 µM.

With `CC(=O)Nc1cccc(OC(=O)N2CCOCC2)c1`, the Potency was inactive: > 76.9 µM.

For `O=C(CSc1ncn(-c2ccccc2)n1)Nc1ccc2c(c1)OCCO2`, the Potency is inactive: > 76.9 µM.

With `CC(=O)N=c1sc2nc3ccccc3nc2n1N(C(C)=O)C(C)=O`, the Potency is inactive: > 76.9 µM.

As for `O=C(Nc1ccccc1)N(O)c1ccc(Cl)cc1`, the Potency was inactive: > 76.9 µM.

Consider `Cc1ccc(-c2noc(CN3CCN(Cc4ccccc4)CC3)n2)cc1`, for which the Potency was inactive: > 76.9 µM.

Regarding `CC(C)OC(=O)CCCCCN1C(=O)CSC1=S`, the Potency was inactive: > 76.9 µM.

As to `COc1cc(OC)c(-c2nn3c(C4CCCCC4)nnc3s2)cc1OC`, the Potency is inactive: > 76.9 µM.

Turning to `CC1CCC(C(=O)NC(C(=O)NCCN2CCC(C)CC2)C(C)C)CC1` (stereo not drawn), the Potency is inactive: > 76.9 µM.

Consider `Cc1c(C)n(C(=O)CSc2ncn[nH]2)c2ccccc12`, for which the Potency is inactive: > 76.9 µM.

With `O=c1[nH]cnc2sc3c(c12)CCCC3`, the Potency was inactive: > 76.9 µM.

With `COC(=O)c1ccccc1NC(=O)c1cc(-c2cccc(OC)c2)on1`, the Potency is inactive: > 76.9 µM.

For `CCOC(=O)c1[nH]c2ccc(OC)cc2c1NC(C)=O`, the Potency was inactive: > 76.9 µM.

Take `CCOc1cccc(N2C(=O)CC(N3CCC(C(N)=O)(N4CCCCC4)CC3)C2=O)c1` (stereo not drawn): the Potency was inactive: > 76.9 µM.

On to `Cc1csc(SCC(=O)c2ccc(S(=O)(=O)N3CCOCC3)cc2)n1`, for which the Potency was inactive: > 76.9 µM.

Turning to `COc1ccc(-n2nnnc2S(=O)(=O)Cc2ccc(C(=O)O)cc2)cc1`, the Potency is inactive: > 76.9 µM.

In the case of `c1coc(CNc2ncnc3c2oc2ccccc23)c1`, the Potency was inactive: > 76.9 µM.

In the case of `N#CCSc1nc2scc(-c3cccs3)c2c(=O)n1CCc1ccccc1`, the Potency is inactive: > 76.9 µM.

For `CCCCn1c(SCC(=O)OCC)nnc1-c1ccoc1C`, the Potency is inactive: > 76.9 µM.

Turning to `CCc1nnc(NC(=O)COC(=O)CN2C(=O)c3ccccc3C2=O)s1`, the Potency is inactive: > 76.9 µM.

With `CN(c1ccccc1C(=O)Nc1ccc(S(=O)(=O)N2CCCCC2)cc1)S(C)(=O)=O`, the Potency is inactive: > 76.9 µM.

On to `CCn1c(NC2CCCCC2)nc2ccccc21`, for which the Potency is inactive: > 76.9 µM.

In the case of `CC(=O)c1ccc(N2CCN(C(=O)c3cc(-c4ccc5c(c4)OCO5)nc4ccccc34)CC2)cc1`, the Potency was inactive: > 76.9 µM.

Consider `Cn1c(=O)n(CCN2CCOCC2)c(=O)c2c1nc1n2CCCN1c1ccccc1`, for which the Potency is inactive: > 76.9 µM.

Regarding `Cc1cc(NC(=O)CSc2nc3c(c(=O)n(C)c(=O)n3C)n2C(C)C)no1`, the Potency is inactive: > 76.9 µM.

As to `COc1cccc(C2=NOC(C(=O)Nc3ccc(C(C)=O)cc3)C2)c1` (stereo not drawn), the Potency was inactive: > 76.9 µM.

For `Cc1cc(NC(=O)COC(=O)C2CCN(C(=O)c3ccc(Cl)cc3)CC2)no1`, the Potency is inactive: > 76.9 µM.

Regarding `O=C(c1ccco1)N1CCN(S(=O)(=O)c2ccc(S(=O)(=O)NC3CCCCC3)cc2)CC1`, the Potency was inactive: > 76.9 µM.

For `COc1ccccc1CNC(=O)CCn1c(=O)sc2ccccc21`, the Potency is inactive: > 76.9 µM.

As to `COc1ccc(-c2nn(CCC(=O)O)cc2CCC(=O)O)cc1`, the Potency was inactive: > 76.9 µM.

`CCc1cccc(NS(=O)(=O)c2c(C)n[nH]c2C)c1`: the Potency is inactive: > 76.9 µM.

For the molecule `Cc1cc(C)n(C(=O)CCC(=O)NCc2ccccc2)n1`, the Potency is inactive: > 76.9 µM.

Turning to `O=C(Nc1nn[nH]n1)c1cccc(Oc2ccccc2)c1`, the Potency is inactive: > 76.9 µM.

For the molecule `O=C(Nc1nccs1)C1C2/C=C\CCCCC21` (stereo not drawn), the Potency is inactive: > 76.9 µM.

Turning to `O=C(CSc1nc(N2CCCCC2)nc(N2CCCCC2)n1)N1CCc2ccccc21`, the Potency was inactive: > 76.9 µM.

As to `COc1ccc(C(c2nnnn2C2CCCC2)N2CCC(C(N)=O)CC2)c(OC)c1` (stereo not drawn), the Potency was inactive: > 76.9 µM.

In the case of `Cc1ccc(C)c(NS(=O)(=O)c2ccc(NC(=O)c3ccco3)cc2)c1`, the Potency was inactive: > 76.9 µM.

With `O=C(Nc1ccc(N2CCCCC2)c(Cl)c1)c1ncn[nH]1`, the Potency is inactive: > 76.9 µM.

`COc1ccccc1C(=O)N1CCN(c2nc3cc(C)c(C)cc3cc2C#N)CC1`: the Potency was inactive: > 76.9 µM.

With `COC(=O)C1=C(N)Oc2cc(C)n(Cc3cccnc3)c(=O)c2C1c1ccccc1OC` (stereo not drawn), the Potency was inactive: > 76.9 µM.

Regarding `COc1ccc2oc(=O)c(C(=O)N3CCN(c4ccccc4C)CC3)cc2c1`, the Potency is inactive: > 76.9 µM.

The values are drawn from PubChem BioAssay AID360 (National Center for Advancing Translational Sciences (NCATS), 2006).
